From the BET-seq Pho4 binding data (Le et al. 2018)
The other results are listed elsewhere or left out. The energies were worked out here from pooled read counts, against the library average; single values are noisy.

Target: T1, Pho4 (S. cerevisiae) (UniProt P07270)
T1 sequence: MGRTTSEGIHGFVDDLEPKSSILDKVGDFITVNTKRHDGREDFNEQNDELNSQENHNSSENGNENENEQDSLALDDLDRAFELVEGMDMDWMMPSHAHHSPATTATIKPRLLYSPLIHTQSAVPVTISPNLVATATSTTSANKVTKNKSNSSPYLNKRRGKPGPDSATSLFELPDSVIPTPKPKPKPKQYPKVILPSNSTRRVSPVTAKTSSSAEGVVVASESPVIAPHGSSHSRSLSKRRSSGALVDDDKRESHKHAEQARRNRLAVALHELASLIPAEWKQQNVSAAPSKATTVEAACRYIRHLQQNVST
Assay: relative binding free energy (BET-seq); higher = weaker binding
Settings: reference: library average

| Sequence | relative binding free energy |
| --- | --- |
| CTGGGCACGTGAATGT | 0.25 kcal/mol |
| TGCAGCACGTGTTAGG | -0.02 kcal/mol |
| GATGTCACGTGATTGG | 0.28 kcal/mol |
| GGCTGCACGTGGATTA | 0.21 kcal/mol |
| TGTTTCACGTGGCGTC | 0.22 kcal/mol |
| GGGGTCACGTGGTGAG | 0.2 kcal/mol |
| TGTTACACGTGCTGAT | 0.04 kcal/mol |
| GTGATCACGTGATTTG | 0.3 kcal/mol |
| AGGGTCACGTGGTGAT | 0.04 kcal/mol |
| TCAGTCACGTGTGAGG | 0.14 kcal/mol |
| GTGTCCACGTGTGCGG | -0.03 kcal/mol |
| TAAGCCACGTGGTTGA | 0.03 kcal/mol |
| CTTGGCACGTGGACTG | -0.09 kcal/mol |
| GGGCACACGTGGGATA | -0.03 kcal/mol |
| TATGGCACGTGTTTAT | -0.05 kcal/mol |
| CTTAGCACGTGAGGAT | 0.24 kcal/mol |
| TTCATCACGTGGGTTA | -0.04 kcal/mol |
| TCGAGCACGTGGGTGC | -0.14 kcal/mol |
| AATTTCACGTGGGTTT | 0.25 kcal/mol |
| AGTATCACGTGTGGTG | 0.18 kcal/mol |
| AGCGGCACGTGGTTCG | -0.18 kcal/mol |
| AAATGCACGTGGCGTT | 0.01 kcal/mol |
| TCAGTCACGTGTGGCT | 0.02 kcal/mol |

| Sequence | relative binding free energy |
| --- | --- |
| ATTGGCACGTGGATGC | 0.07 kcal/mol |
| TTTTGCACGTGAAATA | 0.51 kcal/mol |
| CAAGGCACGTGGCGGG | -0.31 kcal/mol |
| AGTGCCACGTGGAGAT | -0.14 kcal/mol |
| GTATGCACGTGATTAG | 0.13 kcal/mol |
| TTGAGCACGTGTTAGA | -0.08 kcal/mol |
| GGAGTCACGTGAAGAT | 0.37 kcal/mol |
| GTTGTCACGTGTTTCC | 0.25 kcal/mol |
| AGAGTCACGTGGGAAG | 0.14 kcal/mol |
| TGGAACACGTGCTAGG | 0.06 kcal/mol |
| ATGGGCACGTGGGGCC | -0.3 kcal/mol |
| GTACGCACGTGTTTGT | -0.09 kcal/mol |
| TTTGTCACGTGGTTGC | 0.12 kcal/mol |
| ATCGACACGTGGGAAG | 0.19 kcal/mol |
| GGGTTCACGTGCGCCG | 0.27 kcal/mol |
| AATAACACGTGGGGAG | -0.18 kcal/mol |
| TAGTACACGTGACGGG | 0.24 kcal/mol |
| GACTGCACGTGGGATG | -0.11 kcal/mol |
| CAATGCACGTGGGTTT | -0.09 kcal/mol |
| AGCGTCACGTGGGCAT | -0.1 kcal/mol |
| CGTGCCACGTGTATTG | -0.01 kcal/mol |
| TTTCGCACGTGATTTA | 0.07 kcal/mol |
| TGGTTCACGTGTCAAT | 0.15 kcal/mol |

| Sequence | relative binding free energy |
| --- | --- |
| CTATCCACGTGGGGTT | -0.08 kcal/mol |
| ATGACCACGTGTGGTT | 0 kcal/mol |
| TTGCTCACGTGTATGT | 0.21 kcal/mol |
| ATATGCACGTGAATGG | 0.2 kcal/mol |
| AGCGGCACGTGAGGGG | 0.07 kcal/mol |
| CAATTCACGTGGTTGT | 0.18 kcal/mol |
| ATGGTCACGTGGCCTT | -0.03 kcal/mol |
| GCGTGCACGTGATGTG | 0.21 kcal/mol |
| GGTTACACGTGGGAAT | 0.06 kcal/mol |
| TCTTGCACGTGAGGTA | 0.18 kcal/mol |
| CAGGTCACGTGCGAGG | 0.06 kcal/mol |
| TCTTGCACGTGTGTTC | -0.02 kcal/mol |
| AGGAGCACGTGTATTT | 0.07 kcal/mol |
| GAGCTCACGTGTGGAG | 0.24 kcal/mol |
| TCGACCACGTGTGGTT | 0.09 kcal/mol |
| TCGCGCACGTGGTGTA | -0.26 kcal/mol |
| GTCGTCACGTGGGATA | 0.03 kcal/mol |
| CAAGTCACGTGGTTTT | -0.09 kcal/mol |
| TAGGGCACGTGATTTT | -0.07 kcal/mol |
| GTAGGCACGTGTGTCG | -0.1 kcal/mol |
| TCGTTCACGTGATTAA | 0.31 kcal/mol |
| ATGTCCACGTGAAGGG | 0.18 kcal/mol |
| GTGTGCACGTGCAATG | -0.12 kcal/mol |

| Sequence | relative binding free energy |
| --- | --- |
| AGCTACACGTGAGTGG | 0.12 kcal/mol |
| GGTCGCACGTGATGCG | 0.12 kcal/mol |
| TGGGGCACGTGGGTTA | -0.17 kcal/mol |
| AGGTACACGTGTAGGA | 0.11 kcal/mol |
| TAGCTCACGTGAAGTT | 0.53 kcal/mol |
| GTGTGCACGTGAAATG | 0.32 kcal/mol |
| TTGAGCACGTGGGTCG | -0.14 kcal/mol |
| GGTTACACGTGTTTGT | 0.2 kcal/mol |
| TTGTCCACGTGCGTTG | -0.09 kcal/mol |
| GGCTACACGTGTTATT | 0.18 kcal/mol |
| AAGGGCACGTGTTTTA | 0.06 kcal/mol |
| GTGTGCACGTGGTAAC | -0.08 kcal/mol |
| TCGTACACGTGTTTCT | 0.19 kcal/mol |
| TAGTACACGTGTGTTA | 0.13 kcal/mol |
| CTTTTCACGTGAGGGG | 0.39 kcal/mol |
| TGGTGCACGTGACGTT | 0.06 kcal/mol |
| AGCGTCACGTGAGTGA | 0.29 kcal/mol |
| CAGTTCACGTGTTCTG | 0.36 kcal/mol |
| CATGGCACGTGGGTGT | -0.17 kcal/mol |
| CAGGGCACGTGTCAGT | -0.06 kcal/mol |
| TCAAGCACGTGTGTGG | -0.05 kcal/mol |
| CCGGGCACGTGTGGAT | -0.07 kcal/mol |
| AGCTTCACGTGTTTTA | 0.19 kcal/mol |

| Sequence | relative binding free energy |
| --- | --- |
| CGTTGCACGTGAGTGT | 0.15 kcal/mol |
| TATGTCACGTGTCTGA | 0.1 kcal/mol |
| AATCTCACGTGATTGG | 0.35 kcal/mol |
| TTGATCACGTGGCTCG | 0.22 kcal/mol |
| AACTGCACGTGTGATG | 0.08 kcal/mol |
| CGATGCACGTGGGAAT | 0.04 kcal/mol |
| TATGACACGTGTTAGA | -0.03 kcal/mol |
| TAAGTCACGTGGGGGC | -0.05 kcal/mol |
| GAGTGCACGTGCTTGA | -0.08 kcal/mol |
| TATGGCACGTGGTAGC | -0.22 kcal/mol |
| GTTAACACGTGTATGG | 0.01 kcal/mol |
| CGTGGCACGTGCGGGA | -0.08 kcal/mol |
| TAGTACACGTGGTTCT | -0.04 kcal/mol |
| GTTTGCACGTGCTTAT | -0.17 kcal/mol |
| GGGGGCACGTGGCAGA | -0.23 kcal/mol |
| TGCTTCACGTGAGCGT | 0.29 kcal/mol |
| GGGTGCACGTGTGTGC | -0.03 kcal/mol |
| TACTTCACGTGGGGAA | 0.2 kcal/mol |
| GGTCTCACGTGATGGG | 0.44 kcal/mol |
| GAGGACACGTGAGGGG | 0.31 kcal/mol |
| GGCTGCACGTGGGCGA | -0.12 kcal/mol |
| AAATACACGTGGTATT | -0.03 kcal/mol |
| GAGTGCACGTGGTGTG | -0.07 kcal/mol |
